# Laboratory results from PubChem BioAssay AID485364 (National Center for Advancing Translational Sciences (NCATS), 2010).
# Hit rate of the full screen: of about 360,000 compounds, about 11,000 (3.1%) were called active. Inconclusive results, whose numbers are uncertain, are shown with a selection of clear calls. Calls come from the whole dose curve; as a rule, active = well fitted inhibition curve with a large enough effect; inconclusive = small, poorly fitted or top-dose-only effect; inactive = no such curve, though single readings can be large or run the other way. No potency is given beside an inconclusive call; the fits are too rough.
# Molecular target: Schistosoma mansoni thioredoxin glutathione reductase (TGR) (UniProt Q962Y6)
# Assay: qHTS Assay for the Inhibitors of Schistosoma Mansoni Peroxiredoxins; note: nearly all actives have a fitted effect of over 60% in size
# Conditions: purified TGR, DTNB reduction, TNB absorbance 405 nm; series mostly up to 114 µM
# How it was run: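 Kinetic colorimetric format: TGR-catalysed, NADPH-driven DTNB reduction monitored via TNB absorbance. Enzyme dispensed at 20 nM; compound exposure 15 min at room temperature before reaction start.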
# Potency is the fitted concentration of half-maximal effect; tags give direction and shape of the fitted curve.
row,Structure (SMILES),Potency
1,NC(=O)CSc1oc(-c2ccco2)nc1S(=O)(=O)c1ccccc1,"inconclusive [inhibitor, partial curve]"
2,Fc1ccc(C(CCNCc2ccccn2)c2ccc(Cl)cc2)cc1 (stereo not given),"inconclusive [inhibitor, partial curve]"
3,Cc1ccc(C2CC(=O)N3CN(c4ccc(Br)cc4)CSC3=C2C#N)o1 (stereo not given),active: 28.2 µM
4,Cc1oc(-c2ccc3c(c2)OCCO3)cc1C(=O)O,"inconclusive [inhibitor, partial curve]"
5,CN(Cc1ccccc1)C(=O)[C@H]1CCC(=O)N1Cc1ccco1,active: 15.8 µM
6,c1coc(-c2nc3nc4ccccc4nc3n2CC2CCCO2)c1 (stereo not given),active: 50.1 µM
7,CCCCC(=O)Nc1ccc(C(=O)NNC(=S)NC(=O)c2ccco2)cc1,"inconclusive [inhibitor, partial curve]"
8,CN1C(=O)CCC1(O)c1ccccc1 (stereo not given),"inconclusive [inhibitor, full curve]"
9,O=C1CSC2(C(=O)N(Cc3ccccc3F)c3ccccc32)N1c1cccc(C(F)(F)F)c1 (stereo not given),inactive
10,COc1ccc(CCNc2cc(C)nc3c(-c4ccccc4OC)cnn23)cc1OC,inactive
11,CN(CC(=O)Nc1cccc(F)c1)C(=O)c1cc(-c2ccco2)nc2ccccc12,active: 7.94 µM
12,COc1ccccc1C(CCN(Cc1ccccc1)C(C)=O)c1ccco1 (stereo not given),active: 17.8 µM
13,Brc1ccc(C2CC(c3ccccc3)=Nc3ccccc3N2)cc1 (stereo not given),"inconclusive [inhibitor, partial curve]"
14,CCc1ccc(C(C)NC(=O)C2CCCO2)cc1 (stereo not given),"inconclusive [inhibitor, single point]"
15,O=[N+]([O-])c1nn(-c2ccc3c(c2)OCCO3)n(O)c1=NCCC1=CCCCC1,active: 25.1 µM
16,CCN(CCCNC(=O)CC(C(=O)N1CCc2ccccc21)n1ccnc1)c1cccc(C)c1 (stereo not given),inactive
17,Cc1cccc(COCC(CC(C)C)N2CCN(C(=O)c3ccc(C(C)(C)C)cc3)CCC2=O)c1 (stereo not given),inactive
18,Cc1ccc(SCCN2CCN(CC(C)C)CCC2=O)cc1,"inconclusive [inhibitor, partial curve]"
19,CCc1noc(C)c1C(=O)Nc1cc(S(=O)(=O)N(CC)CC)ccc1N1CCCC1,inactive
20,O=C1c2ccccc2NC(c2ccco2)N1O (stereo not given),active: 50.1 µM
21,COc1ccc(-c2nc(CN3CCN(C(=O)c4ccco4)CC3)c(C)o2)c(OC)c1C,"inconclusive [inhibitor, single point]"
22,CCCCC1(Br)C(=O)N(c2ccccc2)N(c2ccccc2)C1=O,active: 14.1 µM
23,COc1ccc(CNC(=O)c2cc3cc4ccc(C)cc4nc3o2)cc1,inactive

row,Structure (SMILES),Potency
1,CC(=O)Nc1ccc(S(=O)(=O)N2CCN(c3cc(C)nc4ncnn34)CC2)cc1,"inconclusive [inhibitor, single point]"
2,COc1ccc(OCCCC(=O)OCC(=O)c2ccc3c(c2)NC(=O)CO3)cc1,active: 44.7 µM
3,CCc1ccc(NC(=O)CSc2nnc(CNC(=O)c3ccc(OC)cc3)o2)cc1,inactive
4,CCC(Sc1nc(-c2ccccc2)[nH]c1S(=O)(=O)c1ccc(C)cc1)C(=O)O (stereo not given),"inconclusive [inhibitor, single point]"
5,COc1ccc(C(c2nnnn2C(C)C)N2CCN(C(=O)c3ccco3)CC2)cc1 (stereo not given),"inconclusive [inhibitor, partial curve]"
6,COc1ccccc1C(=O)Nc1ccnn1C1CCN(CCC(C)c2ccc(C)o2)CC1 (stereo not given),"inconclusive [inhibitor, partial curve]"
7,CN1CCc2c(sc(NC(=O)c3ccc([N+](=O)[O-])o3)c2C(N)=O)C1,"inconclusive [inhibitor, full curve]"
8,COC(=O)C1=C(c2ccc(F)cc2F)C[C@@H]2CC[C@H]1N2C(=O)NCc1ccco1,"inconclusive [inhibitor, partial curve]"
9,Cc1ccccc1Nc1c(N)c(=O)oc2ccccc12,inactive
10,Cc1nnc(N2CCCC(C(=O)NCCN(C)C)C2)c2nn(-c3ccccc3)c(C)c12 (stereo not given),inactive
11,Cc1ccc(CC2C(=O)N(C)C(=O)N(C)C2=O)s1,active: 39.8 µM
12,COc1cc2cc(C(c3nnnn3C3CCCC3)N3CCCCCC3)c(=O)[nH]c2cc1OC (stereo not given),active: 35.5 µM
13,O=S(=O)(c1ccc(F)cc1)N1CN(Cc2ccco2)c2nc3ccccc3nc21,"inconclusive [inhibitor, full curve]"
14,CCN1C(=O)[C@H]2[C@@H](c3ccc(-c4ccc(OC)cc4)cc3)N[C@@](Cc3ccccc3)(C(=O)OC)[C@H]2C1=O,"inconclusive [inhibitor, single point]"
15,Cc1ccc2cc(CCNC(=O)c3ccc(Br)o3)c(=O)[nH]c2c1,"inconclusive [inhibitor, partial curve]"
16,COc1ccc(C(=O)OCC(=O)NC(=O)CCSc2ccccc2)cc1,"inconclusive [inhibitor, partial curve]"
17,CCc1ccc(-c2cc(C)no2)cc1S(=O)(=O)N1CCN(C(=O)c2ccco2)CC1,active: 44.7 µM
18,COc1ccc(CCN2CCCn3c2nc2c3c(=O)n(Cc3ccccc3F)c(=O)n2C)cc1OC,"inconclusive [inhibitor, single point]"
19,Cc1ccc(NC(=O)c2cnc(SCC(=O)N3CCCc4ccccc43)n(C)c2=O)cc1,"inconclusive [inhibitor, partial curve]"
20,COc1ccc(Cl)cc1S(=O)(=O)N1CCC(C(=O)NCc2ccco2)CC1,"inconclusive [inhibitor, full curve, poor fit]"
21,Cc1cc(OCc2nnc(SCC(=O)O)n2-c2ccccc2)ccc1Cl,"inconclusive [inhibitor, full curve, poor fit]"
22,COCCNc1nc(N)c([N+](=O)[O-])c(NC2CCCCC2)n1,"inconclusive [inhibitor, partial curve, poor fit]"
